This note sets out measurements from PMC6919601, “Identification of Plasmodium dipeptidyl aminopeptidase allosteric inhibitors by high throughput screening” (PLoS ONE, 2019).

Structures are written as SMILES. Out of some 110,000 compounds screened, about 230 (0.21%) showed an effect of 50% or more. Some of the results follow.
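Note: 30 min substrate incubation versus DMSO and 10 µM JCP410 controls.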

DPAP1, sequence (Q8IIJ9 whole entry, looked up): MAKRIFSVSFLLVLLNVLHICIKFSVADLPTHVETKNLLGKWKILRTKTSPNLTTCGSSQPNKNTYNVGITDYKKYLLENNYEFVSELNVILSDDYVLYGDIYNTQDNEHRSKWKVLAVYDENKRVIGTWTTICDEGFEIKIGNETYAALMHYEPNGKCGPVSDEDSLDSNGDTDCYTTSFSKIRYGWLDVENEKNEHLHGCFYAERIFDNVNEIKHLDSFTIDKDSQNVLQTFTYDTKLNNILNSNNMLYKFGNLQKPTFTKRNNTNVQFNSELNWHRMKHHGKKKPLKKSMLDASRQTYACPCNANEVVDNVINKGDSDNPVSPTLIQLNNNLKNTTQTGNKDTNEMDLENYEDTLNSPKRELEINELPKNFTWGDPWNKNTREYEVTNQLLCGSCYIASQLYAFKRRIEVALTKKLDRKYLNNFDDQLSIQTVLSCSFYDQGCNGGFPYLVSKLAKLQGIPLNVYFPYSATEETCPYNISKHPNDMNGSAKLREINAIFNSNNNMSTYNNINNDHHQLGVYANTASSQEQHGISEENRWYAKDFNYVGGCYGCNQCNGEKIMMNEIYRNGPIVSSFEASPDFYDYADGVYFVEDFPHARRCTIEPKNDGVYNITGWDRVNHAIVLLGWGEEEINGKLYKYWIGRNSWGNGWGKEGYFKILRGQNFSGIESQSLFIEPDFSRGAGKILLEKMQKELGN

The test addresses DPAP1 (Plasmodium falciparum, UniProt Q8IIJ9). Nature of the test: primary screen, percent inhibition; read by cleavage of a fluorogenic dipeptide substrate; higher = more effect of the substance. More on the design: species or system P. falciparum D10 trophozoite lysates; single well.
With `COc1ccc(/C(O)=C/C=N/Cc2ccc(F)cc2)cc1`, the “% Inhibition @ 10 uM” value came out at 4%.
The same measure for `CCOc1ccc(NCC(=O)Nc2ccc(C)cc2)cc1`: 9.33%.
For the compound `CC(C)C[C@H](NC(=O)c1ccc(-c2csc(Nc3ccncc3)n2)cc1)C(=O)NCCN(CC(C)C)CC(C)C`, the “% Inhibition @ 10 uM” value is on record as -2.35%.
The same measure for `Cc1nn(C(=O)CCC(=O)O)c2ccccc12`: -5.32%; for `O=C(Nc1ccc(Br)cc1)c1ccc(CSc2ncccn2)cc1`: 0.843%; for `CC(C)(C)C1CCc2c(sc(NC(=O)Cn3nnc(-c4cccs4)n3)c2C#N)C1` (stereo not drawn): 1.76%.
As for `CCN(CC)S(=O)(=O)c1cccc(C(=O)Nc2cccc(C(=O)O)c2)c1`, the “% Inhibition @ 10 uM” value is recorded as -0.807%.
The same measure for `Cn1ncc2c(N(Cc3ccccc3)Cc3ccccc3)ncnc21`: 3.04%; for `COc1ccc(CNc2oc(C)nc2C#N)cc1`: 3.8%; for `CC(c1ccccc1)N1CSC2=C(C#N)C(c3ccc(Cl)cc3)CC(=O)N2C1` (stereo not drawn): 73.1%.
The same measure for `COc1ccc(S(=O)(=O)N(C)CC(=O)NC2CCCCC2)cc1`: 1.02%; for `O=C(Nc1ccc(Oc2ccc(Cl)cc2)cc1)c1ccco1`: 7.35%; for `CCOC(=O)c1c(C)[nH]c(C)c1S(=O)(=O)NCCCc1ccccc1`: -4.02%.
The same measure for `COc1cccc2c1Oc1nc(-c3ccc(Cl)cc3)nc(O)c1C2`: -4.68%.
For the compound `C/N=C1\S/C(=C\c2cccn2-c2cccc(Br)c2)C(=O)N1C`, the “% Inhibition @ 10 uM” value is listed as 2.48%.
The same measure for `N#CC1=C(N)Oc2cc(O)c(Cl)cc2C1c1cccnc1` (stereo not drawn): 3.54%; for `CCC(CO)/N=C1\CC(C)(C)CC(O)=C1C(=O)CCCN1C(=O)c2ccccc2C1=O` (stereo not drawn): 0.9%.
The figure for `O=c1cccc2n1C[C@H]1C[C@@H]2CN(Cc2cccs2)C1` is 1.54%.
For `COc1cc(C(=O)Nc2cc(-c3ccccc3)no2)cc(OC)c1OC`, the “% Inhibition @ 10 uM” value was -1.47%.
In the case of `CC(=O)NC(c1ccccc1)n1nnc2ccccc21` (stereo not drawn), the “% Inhibition @ 10 uM” value is given as 3.16%.
Take `COc1cccc(C(=O)NC2=NC(=O)CC(CC(C)C)N2)c1` (stereo not drawn): the “% Inhibition @ 10 uM” value is given as -4.79%.
The same measure for `CCc1nc2cccnc2n1-c1ccc(C(=O)N2CCN(C3CCCCC3)CC2)cc1`: 8.61%; for `Cc1cc(O)c(C2=NCCSC(c3ccccn3)C2)c(=O)o1` (stereo not drawn): 1.66%.
The figure for `CSc1ccc(C2Oc3ccccc3C3=C2C(c2cccs2)n2ncnc2N3)cc1` (stereo not drawn) is 3.32%; for `CC1CCC(N2CCN(Cc3ccccc3)CC2)C1` (stereo not drawn) it is -3.5%; for `CCOC(=O)c1sc(NCCc2c[nH]c3ccc(OC)cc23)nc1-c1ccccc1` it is 2.31%.
The same measure for `CCC(=O)NCc1nc2ccccc2n1Cc1c(F)cccc1Cl`: -13.6%; for `CC1=CC2=NC(=O)/C(=C\c3cn(Cc4ccc5c(c4)OCO5)c4ccccc34)C(=N)N2O1`: 2%; for `COC(=O)c1ccccc1NC(=O)c1cccs1`: -9.83%.
Consider `Cc1ccc(C)c(N(CC(=O)N2CCCC2)S(=O)(=O)c2ccccc2)c1`, for which the “% Inhibition @ 10 uM” value is -4.06%.
`COc1ccccc1NC(=O)CCSc1nc2ccccc2s1`: the “% Inhibition @ 10 uM” value is -5.63%.
The figure for `CC1=CC(C)(C)N2C(=O)C(=O)c3c(C)ccc1c32` is -2.88%; for `CCOc1cc2c(cc1OCC)C1C(C(=O)N(C)C3CCCCC3)c3ccccc3C(=O)N1CC2` (stereo not drawn) it is 2.97%; for `CCOC(=O)C1=C(CN2CCC(N3CCCCC3)CC2)NC(=O)NC1c1ccc(OC(C)C)cc1` (stereo not drawn) it is -2.83%.
The figure for `Cc1nc2ccccc2c2oc(C(=O)NCCCN3CCCC3=O)cc12` is -0.0115%; for `N#CC1=C(N)OC2=C(C(=O)CCC2)C1c1ccc(Br)o1` (stereo not drawn) it is -4.84%; for `CN(C)CCCN(C/C=C/c1ccc(N(C)C)cc1)CCCN(C)C` it is 3.24%.
The figure for `Cc1nc2scc(C)n2c(=O)c1S(=O)(=O)NCCN1CCOCC1` is 1.72%; for `CCn1ncc(C2=NOC(C(=O)Nc3cc(C)nn3-c3ccccc3)C2)c1C` (stereo not drawn) it is -6.68%.
For `CC(C)(CN)C12CC3CC(CC(C3)C1)C2`, the “% Inhibition @ 10 uM” value amounted to 1.62%.
The same measure for `CC(C)(C)NC(=O)c1cc2nc3c(c(C(F)(F)F)n2n1)CCc1ccccc1-3`: -0.362%.
Consider `O=C(c1cc2ccccc2c(=O)s1)N1CCOCC1`, for which the “% Inhibition @ 10 uM” value is listed as -8.99%.
The figure for `Cc1nc2c3ccccc3n(CCc3ccccc3)c2s1` is -6.94%; for `Cc1ccccc1Cn1c(C(=O)O)c(CNC2CCCC(C)C2C)c2ccccc21` (stereo not drawn) it is 6.41%; for `Cc1ccc(C2C(C#N)=C(N)OC3=C2C(=O)CCC3)o1` (stereo not drawn) it is -5.94%.
Regarding `CC1(C)CC(=O)C2=C(C1)N1C(=C(C#N)C2c2cccnc2)N=C(N)c2c1sc1c2CCCCC1` (stereo not drawn), the “% Inhibition @ 10 uM” value was -2.39%.
The figure for `COCCNS(=O)(=O)c1cc(-c2cc(C)no2)ccc1C` is -3.75%; for `O=C(Cn1c2ccccc2c2cnnc(O)c21)NCCCN1CCc2ccccc2C1` it is 1.38%; for `COc1cccc(N2C(=O)CC(N3CCN(c4ccc(Cl)cc4)CC3)C2=O)c1` (stereo not drawn) it is -4.68%.
The figure for `CN(C)c1ccc(-c2nc3cc(NC(=O)COc4ccccc4)ccc3o2)cc1` is -9.4%; for `Cc1ccc(C(C)C)c(OCC(=O)Nc2ccc(S(=O)(=O)N3CCCCC3)cc2)c1` it is 3.53%; for `C=Cc1ccc(Cn2c(C)c(CNCc3cccs3)c(C(=O)O)c2C)cc1` it is -5.49%.
The same measure for `CC(C)C[C@H](NC(=O)N1CCCC1C)C(=O)NCC#N` (stereo partly drawn): 4.33%.
For the compound `O=C(O)c1cc(-c2ccc(O)cc2)nc2[nH]nc(-c3ccccc3)c12`, the “% Inhibition @ 10 uM” value is reported as -4.18%.
The same measure for `C=CCSC1=C(C#N)C(c2ccc(CC)cc2)CC(=O)N1` (stereo not drawn): -0.864%; for `CCC(=O)Nc1ccc(NC(=O)c2ccco2)cc1`: -2.37%; for `COc1ccc(N(CN2C(=O)C3CCC(C)CC3C2=O)C(C)=O)cc1` (stereo not drawn): -17.9%.
The figure for `Cc1ccc(Cn2c(C(=O)O)c(CNCCc3ccccc3Cl)c3ccc(C)cc32)cc1` is 8.55%; for `OC1CCN(Cc2ccc(Cl)c(Cl)c2)CC1` it is -13.8%.
The same measure for `COc1ccc2nc(NC(=O)c3c(-c4ccccc4)noc3C)sc2c1`: -5.69%.
Regarding `COc1cccc(S(=O)(=O)Nc2cccc(C(C)=O)c2)c1`, the “% Inhibition @ 10 uM” value came to 6.69%.
`CCN(CC)C(=O)C1CCCN(Cc2c3ccccc3cc3ccccc23)C1` (stereo not drawn): the “% Inhibition @ 10 uM” value is 1.26%.
`O=C(Nc1ccc(Br)cc1)c1cccc(S(=O)(=O)Nc2ccc(Cl)cn2)c1`: the “% Inhibition @ 10 uM” value was -0.0217%.
The figure for `O=C(COc1ccc(S(=O)(=O)NCCc2ccccc2)cc1)N1CCCCCC1` is -5.31%; for `CCOP(=O)(O)C(Oc1ccccc1O)c1ccccc1` (stereo not drawn) it is 2.6%; for `COc1ccc(C(NC(=O)C2CC=CCC2C(=O)O)c2ccccc2)cc1` (stereo not drawn) it is 0.503%.
For `CC(Nc1cc(N2CCN(CCO)CC2)ccc1[N+](=O)[O-])C12C[C@H]3C[C@@H](C1)C[C@@H](C2)C3` (stereo partly drawn), the “% Inhibition @ 10 uM” value stood at 1.72%.
The same measure for `CC1=C(C(=O)c2ccccc2)C(c2ccccc2)NC(=O)N1` (stereo not drawn): -3.77%; for `c1ccc2sc(SCc3ccc4nonc4c3)nc2c1`: 2.69%.
The same measure for `CCOc1ccc(C2(O)C[N+](c3cccc(C)c3C)=C3CCCCN32)cc1` (stereo not drawn): 3.99%.
The figure for `COCCN1C2=C(C(=O)CC(C)(C)C2)C(c2cc(Cl)c(O)c(OC)c2)C2=C1CC(C)(C)CC2=O` is -3.41%.
With `Cn1nc(C(=O)NCCN2CCOCC2)c2c1-c1ccccc1SC2`, the “% Inhibition @ 10 uM” value turned out to be 1.68%.
The same measure for `CCOc1ccc(C(=O)Nc2ccc(S(=O)(=O)Nc3nccs3)cc2)cc1`: -5.78%; for `CCCCNC(=O)CCN1C(=O)c2ccccc2S1(=O)=O`: -8.53%; for `Cc1cc(C)cc(NS(=O)(=O)c2ccc(NC(=O)[C@@H]3CCCC[C@@H]3C(=O)O)cc2)c1`: 2.86%.
The figure for `Cc1cc(=O)oc2c1c(C)nn2-c1ccc(Br)cc1` is 2.22%.
The same measure for `COc1ccc(-c2nnc3c4cnn(-c5ccccc5)c4ncn23)cc1OC`: -5.85%.
As to `O=C(Nc1cccc(Cl)c1)Nc1nc2ccccc2[nH]1`, the “% Inhibition @ 10 uM” value worked out at 3.24%.
The same measure for `O=C1c2ccccc2C(=O)N1C1CCCCC1N1C(=O)c2ccccc2C1=O` (stereo not drawn): 3.5%; for `Cc1ccc(S(=O)(=O)NCCC(c2ccc(F)cc2)c2ccco2)cc1` (stereo not drawn): -3.74%.
The same measure for `O=S(=O)(NCc1ccc2[nH]c3c(c2c1)CCCC3)c1ccc(Cl)s1`: 0.00706%; for `CCOc1ccc(S(=O)(=O)N2CCSC2c2ccc(Cl)cc2)cc1` (stereo not drawn): -0.865%.
The figure for `COc1cc(C2c3sc(O)nc3SC3C4CC(C5C(=O)N(CC(=O)O)C(=O)C45)C23)ccc1O` (stereo not drawn) is 3.87%.
Take `Cc1cc(C)n(CCC(=O)O)c(=O)n1`: the “% Inhibition @ 10 uM” value is given as -1.29%.
Regarding `CC1=C(C(=O)Nc2cccc(Cl)c2)C(c2ccc(Cl)cc2)NC(=O)N1` (stereo not drawn), the “% Inhibition @ 10 uM” value is recorded as -6.33%.
Regarding `CCNC(=O)/C(C#N)=C/c1c(Oc2ccc(Br)cc2)nc2ccccn2c1=O`, the “% Inhibition @ 10 uM” value is given as 2.16%.
Turning to `Cc1ccc2[nH]c(C(C)(C)C)cc2c1`, the “% Inhibition @ 10 uM” value was determined as 3.72%.
The same measure for `COc1ccc(C2C(C(N)=O)=C(C)Nc3nc(-c4ccccc4)nn32)cc1OC` (stereo not drawn): -1.47%; for `CCOc1ccccc1CNCc1c(C(=O)O)c(C)n(Cc2ccc(F)cc2)c1C`: -5.49%; for `NC(=O)C1(S(=O)(=O)c2ccccc2)CC1`: -4.06%.
For `CCOc1ccc(-n2c(C)nc3cc(C(=O)NCC4CCCO4)ccc32)cc1` (stereo not drawn), the “% Inhibition @ 10 uM” value was determined as 5.85%.
As to `CC(C)Sc1nn2c(=O)cc(CSc3nc4ccccc4[nH]3)nc2s1`, the “% Inhibition @ 10 uM” value is 1.15%.
As for `O=C(C1COc2ccccc2O1)N1CCn2c(nc3ccccc32)C1` (stereo not drawn), the “% Inhibition @ 10 uM” value is given as -8.68%.
The same measure for `Fc1ccc(CNCCC2=CCCCC2)cc1`: 2.38%; for `Cc1nnc(C)n1/N=C/c1cc(C(C)(C)C)c(O)c(C(C)(C)C)c1`: 3.06%.
`Cc1ccccc1C(=O)Nc1ncn(Cc2ccccc2)n1`: the “% Inhibition @ 10 uM” value is 2.26%.
For the compound `COCc1cc(C)nc(SCC(=O)Nc2ccc(Cl)c(Cl)c2)c1C#N`, the “% Inhibition @ 10 uM” value was -1.06%.
The figure for `Cc1ccc(-c2nn3c(-c4ccncc4)nnc3s2)cc1C` is 19%.
The same measure for `Cc1oc(-c2ccc(Cl)cc2)nc1CS(=O)CC(=O)NCCC1=CCCCC1` (stereo not drawn): -2.85%.
